Assay results from the supplement of paper PMC8728848.
This is one part of the list.

Columns and labels:
Experiment in all cases: glycan array binding signal (z-score within array); higher = stronger binding
Conditions in all cases: glycan notation: IUPAC condensed, linker removed
GalNAc(b1-4)GlcNAc6S = target: GalNAc(b1-4)GlcNAc6S
Summary of the method: (§1)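 Glycan array binding is given as a within-array Z-score, which can be read as non-binding when negative. The arrays, 3228 of them, came from the Consortium for Functional Glycomics database and were retained only where the protein sequence was available. Z-scores were averaged across arrays of the same protein sequence at different concentrations or buffers and across linkers.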

GalNAc(b1-6)GalNAc = target: GalNAc(b1-6)GalNAc
Summary of the method: as §1

GalNAc3S(b1-4)GlcNAc = target: GalNAc3S(b1-4)GlcNAc
Summary of the method: as §1

GalNAc3S(b1-4)GlcNAc3S = target: GalNAc3S(b1-4)GlcNAc3S
Summary of the method: as §1

[1] = target: GalNAc3S(b1-4)[Fuc(a1-3)]GlcNAc
Summary of the method: as §1

GalNAc4S6S(b1-4)GlcNAc = target: GalNAc4S6S(b1-4)GlcNAc
Summary of the method: as §1

GalNAc6S(b1-4)GlcNAc = target: GalNAc6S(b1-4)GlcNAc
Summary of the method: as §1

Glc(a1-4)Glc = target: Glc(a1-4)Glc
Summary of the method: as §1

[2] = target: Glc(a1-4)Glc(a1-4)Glc(a1-4)Glc
Summary of the method: as §1

Glc(a1-6)Glc(a1-6)Glc = target: Glc(a1-6)Glc(a1-6)Glc
Summary of the method: as §1

[3] = target: Glc(a1-6)Glc(a1-6)Glc(a1-6)Glc
Summary of the method: as §1

Glc(b1-4)Glc = target: Glc(b1-4)Glc
Summary of the method: as §1

Glc(b1-6)Glc = target: Glc(b1-6)Glc
Summary of the method: as §1

GlcA(b1-3)Gal = target: GlcA(b1-3)Gal
Summary of the method: as §1

GlcA(b1-3)GlcNAc = target: GlcA(b1-3)GlcNAc
Summary of the method: as §1

GlcA(b1-6)Gal = target: GlcA(b1-6)Gal
Summary of the method: as §1

[4] = target: GlcA3S(b1-3)Gal(b1-4)GlcNAc(b1-2)Man
Summary of the method: as §1

[5] = target: GlcA3S(b1-3)Gal(b1-4)GlcNAc(b1-3)Gal(b1-4)Glc
Summary of the method: as §1

[6] = target: GlcNAc(a1-3)Gal(b1-4)GlcNAc
Summary of the method: as §1

[7] = target: GlcNAc(a1-4)Gal(b1-3)GlcNAc
Summary of the method: as §1

[8] = target: GlcNAc(a1-4)Gal(b1-4)GalNAc
Summary of the method: as §1

[9] = target: GlcNAc(a1-4)Gal(b1-4)GlcNAc
Summary of the method: as §1

[10] = target: GlcNAc(a1-4)Gal(b1-4)GlcNAc(b1-3)Gal(b1-4)Glc
Summary of the method: as §1

[11] = target: GlcNAc(a1-4)Gal(b1-4)GlcNAc(b1-3)Gal(b1-4)GlcNAc
Summary of the method: as §1

[12] = target: GlcNAc(a1-4)Gal(b1-4)GlcNAc(b1-3)Gal(b1-4)GlcNAc(b1-3)Gal(b1-4)GlcNAc
Summary of the method: as §1

[13] = target: GlcNAc(a1-4)Gal(b1-4)GlcNAc(b1-3)Gal(b1-4)[Fuc(a1-3)]GlcNAc(b1-3)Gal(b1-4)[Fuc(a1-3)]GlcNAc
Summary of the method: as §1

[14] = target: GlcNAc(a1-6)Gal(b1-4)GlcNAc
Summary of the method: as §1

[15] = target: GlcNAc(b1-2)Gal(b1-3)GalNAc
Summary of the method: as §1

[16] = target: GlcNAc(b1-2)Man(a1-3)[GlcNAc(b1-2)Man(a1-6)]Man(b1-4)GlcNAc(b1-4)GlcNAc
Summary of the method: as §1

[17] = target: GlcNAc(b1-2)Man(a1-3)[GlcNAc(b1-2)Man(a1-6)]Man(b1-4)GlcNAc(b1-4)[Fuc(a1-6)]GlcNAc
Summary of the method: as §1

[18] = target: GlcNAc(b1-2)Man(a1-3)[GlcNAc(b1-4)][GlcNAc(b1-2)Man(a1-6)]Man(b1-4)GlcNAc(b1-4)GlcNAc
Summary of the method: as §1

[19] = target: GlcNAc(b1-2)Man(a1-3)[GlcNAc(b1-4)][GlcNAc(b1-2)Man(a1-6)]Man(b1-4)GlcNAc(b1-4)[Fuc(a1-6)]GlcNAc
Summary of the method: as §1

[20] = target: GlcNAc(b1-2)[GlcNAc(b1-4)]Man(a1-3)[GlcNAc(b1-2)Man(a1-6)]Man(b1-4)GlcNAc(b1-4)GlcNAc
Summary of the method: as §1

[21] = target: GlcNAc(b1-2)[GlcNAc(b1-4)]Man(a1-3)[GlcNAc(b1-4)][GlcNAc(b1-2)Man(a1-6)]Man(b1-4)GlcNAc(b1-4)GlcNAc
Summary of the method: as §1

[22] = target: GlcNAc(b1-2)[GlcNAc(b1-4)]Man(a1-3)[GlcNAc(b1-4)][GlcNAc(b1-2)[GlcNAc(b1-6)]Man(a1-6)]Man(b1-4)GlcNAc(b1-4)GlcNAc
Summary of the method: as §1

[23] = target: GlcNAc(b1-2)[GlcNAc(b1-4)]Man(a1-3)[GlcNAc(b1-4)][GlcNAc(b1-2)[GlcNAc(b1-6)]Man(a1-6)]Man(b1-4)GlcNAc(b1-4)[Fuc(a1-6)]GlcNAc
Summary of the method: as §1

[24] = target: GlcNAc(b1-2)[GlcNAc(b1-6)]Man(a1-6)[GlcNAc(b1-2)Man(a1-3)]Man(b1-4)GlcNAc(b1-4)GlcNAc
Summary of the method: as §1

B1: Gal 9 (Homo sapiens), O00182 (protein)
chain: MAFSGSQAPYLSPAVPFSGTIQGGLQDGLQITVNGTVLSSSGTRFAVNFQTGFSGNDIAFHFNPRFEDGGYVVCNTRQNGSWGPEERKTHMPFQKGMPFDLCFLVQSSDFKVMVNGILFVQYFHRVPFHRVDTISVNGSVQLSYISFQNPRTVPVQPAFSTVPFSQPVCFPPRPRGRRQKPPGVWPANPAPITQTVIHTVQSAPGQMFSTPAIPPMMYPHPAYPMPFITTILGGLYPSKSILLSGTVLPSAQRFHINLCSGNHIAFHLNPRFDENAVVRNTQIDNSWGSEERSLPRKMPFVRGQSFSVWILCEAHCLKVAVDGQHLFEYYHRLRNLPTINRLEVGGDIQLTHVQT
In the case of B1, the “glycan array binding signal (z-score)” value (GalNAc(b1-4)GlcNAc6S) is reported as -0.264, the “glycan array binding signal (z-score)” value (GalNAc(b1-6)GalNAc) is reported as -0.313 and the “glycan array binding signal (z-score)” value (GalNAc3S(b1-4)GlcNAc) is reported as -0.295. For the same binder, the “glycan array binding signal (z-score)” value (GalNAc3S(b1-4)GlcNAc3S) was -0.307, the “glycan array binding signal (z-score)” value [1] was -0.242 and the “glycan array binding signal (z-score)” value (GalNAc4S6S(b1-4)GlcNAc) was -0.309. For the same binder, the “glycan array binding signal (z-score)” value (GalNAc6S(b1-4)GlcNAc) was -0.286, the “glycan array binding signal (z-score)” value (Glc(a1-4)Glc) was -0.33 and the “glycan array binding signal (z-score)” value [2] was -0.319. The “glycan array binding signal (z-score)” value (Glc(a1-6)Glc(a1-6)Glc) was -0.309, the “glycan array binding signal (z-score)” value [3] was -0.316 and the “glycan array binding signal (z-score)” value (Glc(b1-4)Glc) was -0.307. The “glycan array binding signal (z-score)” value (Glc(b1-6)Glc) was -0.327, the “glycan array binding signal (z-score)” value (GlcA(b1-3)Gal) was -0.324 and the “glycan array binding signal (z-score)” value (GlcA(b1-3)GlcNAc) was 0.12. The “glycan array binding signal (z-score)” value (GlcA(b1-6)Gal) was -0.322, the “glycan array binding signal (z-score)” value [4] was -0.285 and the “glycan array binding signal (z-score)” value [5] was 0.712. For the same binder, the “glycan array binding signal (z-score)” value [6] was -0.313, the “glycan array binding signal (z-score)” value [7] was -0.316 and the “glycan array binding signal (z-score)” value [8] was -0.33. The “glycan array binding signal (z-score)” value [9] was -0.313, the “glycan array binding signal (z-score)” value [10] was 0.089 and the “glycan array binding signal (z-score)” value [11] was -0.267. For the same binder, the “glycan array binding signal (z-score)” value [12] was 0.561, the “glycan array binding signal (z-score)” value [13] was -0.275 and the “glycan array binding signal (z-score)” value [14] was -0.312. The “glycan array binding signal (z-score)” value [15] was -0.328, the “glycan array binding signal (z-score)” value [16] was -0.322 and the “glycan array binding signal (z-score)” value [17] was -0.312. The “glycan array binding signal (z-score)” value [18] was -0.318, the “glycan array binding signal (z-score)” value [19] was -0.293 and the “glycan array binding signal (z-score)” value [20] was -0.323. For the same binder, the “glycan array binding signal (z-score)” value [21] was -0.314, the “glycan array binding signal (z-score)” value [22] was -0.32 and the “glycan array binding signal (z-score)” value [23] was -0.267. The “glycan array binding signal (z-score)” value [24] was -0.324.
